The target of test [1] is T1, Bem1-mCherry-Cub-RGFP (S. cerevisiae) (UniProt P29366).
T1 sequence: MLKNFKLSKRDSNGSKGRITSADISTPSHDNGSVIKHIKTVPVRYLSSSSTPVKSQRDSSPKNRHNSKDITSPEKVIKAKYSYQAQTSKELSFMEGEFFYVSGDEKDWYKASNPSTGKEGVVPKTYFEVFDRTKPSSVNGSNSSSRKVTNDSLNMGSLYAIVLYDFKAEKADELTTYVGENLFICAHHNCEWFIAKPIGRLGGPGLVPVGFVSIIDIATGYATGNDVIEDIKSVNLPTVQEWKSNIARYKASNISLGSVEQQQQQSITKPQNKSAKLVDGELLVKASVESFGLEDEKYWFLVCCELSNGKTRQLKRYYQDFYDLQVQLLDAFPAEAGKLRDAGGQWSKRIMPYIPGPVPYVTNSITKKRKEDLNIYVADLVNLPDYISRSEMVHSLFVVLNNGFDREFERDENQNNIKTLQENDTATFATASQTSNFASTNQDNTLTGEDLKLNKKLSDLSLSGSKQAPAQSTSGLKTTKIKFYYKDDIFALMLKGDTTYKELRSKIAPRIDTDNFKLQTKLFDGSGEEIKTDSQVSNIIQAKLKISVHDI
In words: split reporter; SPLIFF as a9, measured at the cell front during bud site assembly and bud growth (PCDII).

Chains of the proteins cited; added tags and fusions are not shown.
UniProt P19658: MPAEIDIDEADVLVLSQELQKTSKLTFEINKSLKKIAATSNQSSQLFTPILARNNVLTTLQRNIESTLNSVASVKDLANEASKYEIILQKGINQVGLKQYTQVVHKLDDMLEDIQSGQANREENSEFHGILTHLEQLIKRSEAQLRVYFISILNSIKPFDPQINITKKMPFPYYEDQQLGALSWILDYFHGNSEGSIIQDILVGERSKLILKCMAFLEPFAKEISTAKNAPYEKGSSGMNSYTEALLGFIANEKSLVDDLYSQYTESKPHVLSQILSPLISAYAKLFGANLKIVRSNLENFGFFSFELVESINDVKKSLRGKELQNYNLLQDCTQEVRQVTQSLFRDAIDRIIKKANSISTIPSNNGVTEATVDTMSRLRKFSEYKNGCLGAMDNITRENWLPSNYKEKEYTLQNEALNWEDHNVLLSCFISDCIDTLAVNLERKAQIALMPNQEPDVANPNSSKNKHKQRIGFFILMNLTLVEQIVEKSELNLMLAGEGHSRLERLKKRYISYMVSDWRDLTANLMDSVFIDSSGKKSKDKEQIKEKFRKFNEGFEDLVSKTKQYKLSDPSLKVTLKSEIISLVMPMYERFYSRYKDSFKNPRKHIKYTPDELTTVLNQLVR

Test [2] has as its target T1, Bem1-mCherry-Cub-RGFP (S. cerevisiae). Briefly: split reporter; SPLIFF as a9, measured at the bud neck from completion of acto-myosin ring contraction until abscission (PCDIII).
Test [3] addresses T2, Bem1WK-Cub-RUra3 (S. cerevisiae) (UniProt P29366).
T2 sequence: T1 sequence with W192K
Briefly: split reporter; split-ubiquitin (Split-Ub): a-cells with a Cub-RUra3 (CRU) fusion mated with α-cells with Nub fusions (P_CUP1), diploids as quadruplets on SD medium with 1 mg/ml 5-FOA and copper; growth = interaction; detects direct and indirect interactions.

Test [4] addresses T3, Bem1-Cub-RUra3 (S. cerevisiae) (UniProt P29366).
T3 sequence: T1 sequence
The test is described as above.

The target in the next test is T4, Fir1CRU (S. cerevisiae) (UniProt P40020).
T4 sequence: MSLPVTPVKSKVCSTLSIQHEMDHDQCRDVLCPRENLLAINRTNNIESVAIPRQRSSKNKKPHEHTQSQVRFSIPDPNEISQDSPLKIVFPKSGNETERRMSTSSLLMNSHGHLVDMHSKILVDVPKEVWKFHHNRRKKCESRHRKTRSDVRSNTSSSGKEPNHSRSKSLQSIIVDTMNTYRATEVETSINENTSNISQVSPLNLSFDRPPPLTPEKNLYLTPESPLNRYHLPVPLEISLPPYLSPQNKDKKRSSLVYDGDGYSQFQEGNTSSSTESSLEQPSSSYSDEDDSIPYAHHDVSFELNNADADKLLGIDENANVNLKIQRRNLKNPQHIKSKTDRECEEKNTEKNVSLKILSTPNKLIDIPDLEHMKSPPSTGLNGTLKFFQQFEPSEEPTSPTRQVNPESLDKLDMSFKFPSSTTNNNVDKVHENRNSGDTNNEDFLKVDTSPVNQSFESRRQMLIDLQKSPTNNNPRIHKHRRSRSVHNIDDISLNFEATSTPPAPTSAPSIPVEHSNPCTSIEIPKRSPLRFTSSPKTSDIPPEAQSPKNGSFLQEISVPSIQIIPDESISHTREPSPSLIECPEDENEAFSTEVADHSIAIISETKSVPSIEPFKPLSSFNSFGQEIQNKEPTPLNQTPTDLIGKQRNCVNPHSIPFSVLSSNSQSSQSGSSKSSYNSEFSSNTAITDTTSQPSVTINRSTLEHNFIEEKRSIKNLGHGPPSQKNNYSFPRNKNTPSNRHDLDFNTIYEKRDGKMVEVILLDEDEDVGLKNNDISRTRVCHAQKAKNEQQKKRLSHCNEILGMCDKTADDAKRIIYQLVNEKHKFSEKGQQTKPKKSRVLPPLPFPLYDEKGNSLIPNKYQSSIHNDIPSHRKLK
Briefly: split reporter; split-ubiquitin (Split-Ub): CRU and Nub fusions co-expressed in yeast cells, spotted in 10-fold serial dilutions on medium with 1 mg/ml 5-FOA and copper, 30°C; growth = interaction.

Test [5] deals with T5, Bud6_(1-364)CRU (S. cerevisiae) (UniProt P41697).
T5 sequence: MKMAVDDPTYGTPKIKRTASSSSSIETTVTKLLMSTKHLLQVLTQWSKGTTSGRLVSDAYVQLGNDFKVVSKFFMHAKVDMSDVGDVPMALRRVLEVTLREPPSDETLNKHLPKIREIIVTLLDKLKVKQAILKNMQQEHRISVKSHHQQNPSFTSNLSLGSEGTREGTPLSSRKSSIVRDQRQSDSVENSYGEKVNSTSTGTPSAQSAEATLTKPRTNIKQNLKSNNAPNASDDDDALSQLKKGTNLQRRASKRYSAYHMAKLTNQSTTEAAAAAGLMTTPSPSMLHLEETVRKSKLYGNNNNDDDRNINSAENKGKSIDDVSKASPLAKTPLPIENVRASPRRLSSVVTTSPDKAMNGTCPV
Described as above.

The target in test [6] is T1, Bem1-mCherry-Cub-RGFP (S. cerevisiae). In words: split reporter; SPLIFF as a9, measured at the cell front during bud site assembly and bud growth (PCDII). This is another data set of the same source.
Another test has as its target T6, Nba1CRU (S. cerevisiae) (UniProt Q08229).
T6 sequence: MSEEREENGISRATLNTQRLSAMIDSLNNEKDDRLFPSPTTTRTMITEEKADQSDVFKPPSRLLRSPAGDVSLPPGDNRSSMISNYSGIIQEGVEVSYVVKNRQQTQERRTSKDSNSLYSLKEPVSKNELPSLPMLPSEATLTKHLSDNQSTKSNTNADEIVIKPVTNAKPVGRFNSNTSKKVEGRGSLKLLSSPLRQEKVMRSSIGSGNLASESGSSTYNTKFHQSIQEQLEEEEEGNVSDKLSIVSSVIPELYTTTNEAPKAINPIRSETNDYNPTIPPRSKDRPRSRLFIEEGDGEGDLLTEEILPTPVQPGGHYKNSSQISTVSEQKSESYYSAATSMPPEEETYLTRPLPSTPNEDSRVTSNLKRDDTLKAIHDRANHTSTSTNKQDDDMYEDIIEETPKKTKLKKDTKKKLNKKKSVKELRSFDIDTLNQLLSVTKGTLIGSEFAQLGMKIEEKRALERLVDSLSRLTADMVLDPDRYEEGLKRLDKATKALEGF
Briefly: split reporter; split-ubiquitin (Split-Ub): a-cells with a Cub-RUra3 (CRU) fusion mated with α-cells with Nub fusions (P_CUP1), diploids as quadruplets on SD medium with 1 mg/ml 5-FOA and copper; growth = interaction; detects direct and indirect interactions.

Test [7] has as its target T1, Bem1-mCherry-Cub-RGFP (S. cerevisiae). Briefly: split reporter; SPLIFF (split-ubiquitin with mCherry-Cub-RGFP, CCG): a-cells with the CCG fusion mated with α-cells with Nub-HA fusions; conversion of CCG to CC measured by time-lapse microscopy at the site of cell fusion (PCDI); a significant positive slope = interaction.

We go through three molecules from publication PMC7409549, “A time-resolved interaction analysis of Bem1 reconstructs the flow of Cdc42 during polar growth” (Life Science Alliance, 2020).

Numbering of substitutions follows the chain as printed. No constants are given. Whether binding was seen depends on the method and setting. Binding seen in cells or lysates may run through a third protein. Some results given as binding are weak or reduced against the parent protein; the word gives no strength. For some of these results: Where a sequence is shown, tags or fusion partners need not be part of it.

With Nub-Exo70 (from UniProt P19658 1-623), the binding entry in [1], in test [2], in [3] and in [4] was “binds” each time.

B1: Nub-Boi2 (protein, UniProt P39969 1-1040)
chain: MSNDREVPTLSQLNTTVSRDKDVSDTLSPDFDSKGSATGRDGGNFPMYIAINEYFKRMEDELDMKPGDKIKVITDDEEYKDGWYFGRNLRTNEEGLYPVVFTQKITVEKAPTLMRAKSTKRIYSPLTNEDPLLSSTFISENDSNSELPTPQPIETAASISRTANGKIERNLSLKNTMSDIDNALLEFKDDSIGPPDRFINSGRDEEHSITHETILSATDGLDVVESNSKPTTSSSTGFLNGDLENQATLINGIDTTKLNPVEAEFWSPEEITAYFIMEGYDVQSASRFQKHKISGKILLELELVHLKELDINSFGTRFEIFKEIEKIKEAIRTNGRSLNRASKTNNANIYNQLMPPANVDQRASYRGHVRKTSQSLEDLPSQQNFIPTPRNTRNSSASKHRPKSLVFDSQEANANIAPDVQIPQVVEEMAGNENLFVSPRRAPKPPSYPSPAQPPKSPLLNNTRTSPSPAQLYSWQSPTLSFSGPKRTSYIDQYSSSDSNFNSRSALPKNNQGGGKALSPIPSPTRNSVRNEDSEGKLTSSSKRNSVPYYGYAPESSSDRKSSCSSHEEEQFQETMNTFERPTSSIYADGSTIASISNDKLAHEKEGKKKPTRHSSSLSSKSKSDSRRNSSLKRSSSASRTSSFKKSSFMLSPFRQQFTDNAARSSSPEENPITSMPSEKNSSPIVDKKSSKKSRSKRRSVSAKEAEIFTETVKDDKNKRSASEAIKGETLKGKSLRQMTARPVAKKKQTSAFIEGLRSISVKEAMKDADFSGWMSKKGSGAMSTWKTRFFTLHGTRLSYFSSTTDTRERGLIDITAHRVVPAKEDDKLVSLYAASTGKGRYCFKLLPPQPGSKKGLTFTQPRTHYFAVDNKEEMRGWMAALIKTTIDIDTSVPIISSYTTPTVSLSKAQEMLAEAREETKLREQQMLENEEDEDQFLWDQQQLQQQQHDNNQGQADRTISASTQRTSDEDNTISTPNLSSANNTTIGSNGFSSPFLLASGLLSPGVARNSSMRGTEKKGKFSTEEDYFGDNSKHKTDKI
As for B1, the binding result (with Fir1CRU (S. cerevisiae); in test [5]; in test [2]; in test [6]; in test [4]; with Nba1CRU (S. cerevisiae)) was “binds” throughout. Besides, the binding entry in test [7] was “binds”.

B2: Nub-Boi1 (protein, UniProt P38041 1-980)
chain: MSLEGNTLGKGAKSFPLYIAVNQYSKRMEDELNMKPGDKIKVITDDGEYNDGWYYGRNLRTKEEGLYPAVFTKRIAIEKPENLHKSPTQESGNSGVKYGNLNDSASNIGKVSSHQQENRYTSLKSTMSDIDKALEELRSGSVEQEVSKSPTRVPEVSTPQLQDEQTLIQEKTRNEENTTHDSLFSSTADLNLSSESLKNISKSNISTKSLEPSSESVRQLDLKMAKSWSPEEVTDYFSLVGFDQSTCNKFKEHQVSGKILLELELEHLKELEINSFGIRFQIFKEIRNIKSAIDSSSNKLDADYSTFAFENQAAQLMPAATVNRDEIQQQISSKCNKLSSESSDRKSSSVTTELQRPSSVVVNPNFKLHDPAEQILDMTEVPNLFADKDIFESPGRAPKPPSYPSPVQPPQSPSFNNRYTNNNARFPPQTTYPPKNKNPTVYSNGLIPNSSTSSDNSTGKFKFPAMNGHDSNSRKTTLTSATIPSINTVNTDESLPAISNISSNATSHHPNRNSVVYNNHKRTESGSSFVDLFNRISMLSPVKSSFDEEETKQPSKASRAVFDSARRKSSYGHSRDASLSEMKKHRRNSSILSFFSSKSQSNPTSPTKQTFTIDPAKMTSHSRSQSNSYSHARSQSYSHSRKHSLVTSPLKTSLSPINSKSNIALAHSETPTSSNNKEAVSQPSEGKHKHKHKHKSKHKHKNSSSKDGSSEEKSKKKLFSSTKESFVGSKEFKRSPSELTQKSTKSILPRSNAKKQQTSAFTEGIRSITAKESMQTADCSGWMSKKGTGAMGTWKQRFFTLHGTRLSYFTNTNDEKERGLIDITAHRVLPASDDDRLISLYAASLGKGKYCFKLVPPQPGSKKGLTFTEPRVHYFAVENKSEMKAWLSAIIKATIDIDTSVPVISSYATPTIPLSKAQTLLEEARLQTQLRDAEEEEGRDQFGWDDTQNKRNSNYPIEQDQFETSDYLESSAFEYPGGRL
Regarding B2, the binding entry was “binds” with Fir1CRU (S. cerevisiae); “binds” in test [5]; “binds” in [2]; “binds” in test [6]; “no binding” in test [3]; “binds” in test [4]. For the same molecule, the binding result (with Nba1CRU (S. cerevisiae); in [7]) was “binds” throughout.
